Hit rate of the full screen: of about 16,000 compounds, about 120 (0.75%) were called active. Roughly 4% stayed inconclusive and do not appear here. Calls come from the whole dose curve; as a rule, active = well fitted inhibition curve with a large enough effect; inconclusive = small, poorly fitted or top-dose-only effect; inactive = no such curve, though single readings can be large or run the other way. The list shows a part of the results.
Target: Rap guanine nucleotide exchange factor 3 (Homo sapiens) (UniProt O95398)
Sequence of UniProt O95398 (O95398 whole entry, looked up): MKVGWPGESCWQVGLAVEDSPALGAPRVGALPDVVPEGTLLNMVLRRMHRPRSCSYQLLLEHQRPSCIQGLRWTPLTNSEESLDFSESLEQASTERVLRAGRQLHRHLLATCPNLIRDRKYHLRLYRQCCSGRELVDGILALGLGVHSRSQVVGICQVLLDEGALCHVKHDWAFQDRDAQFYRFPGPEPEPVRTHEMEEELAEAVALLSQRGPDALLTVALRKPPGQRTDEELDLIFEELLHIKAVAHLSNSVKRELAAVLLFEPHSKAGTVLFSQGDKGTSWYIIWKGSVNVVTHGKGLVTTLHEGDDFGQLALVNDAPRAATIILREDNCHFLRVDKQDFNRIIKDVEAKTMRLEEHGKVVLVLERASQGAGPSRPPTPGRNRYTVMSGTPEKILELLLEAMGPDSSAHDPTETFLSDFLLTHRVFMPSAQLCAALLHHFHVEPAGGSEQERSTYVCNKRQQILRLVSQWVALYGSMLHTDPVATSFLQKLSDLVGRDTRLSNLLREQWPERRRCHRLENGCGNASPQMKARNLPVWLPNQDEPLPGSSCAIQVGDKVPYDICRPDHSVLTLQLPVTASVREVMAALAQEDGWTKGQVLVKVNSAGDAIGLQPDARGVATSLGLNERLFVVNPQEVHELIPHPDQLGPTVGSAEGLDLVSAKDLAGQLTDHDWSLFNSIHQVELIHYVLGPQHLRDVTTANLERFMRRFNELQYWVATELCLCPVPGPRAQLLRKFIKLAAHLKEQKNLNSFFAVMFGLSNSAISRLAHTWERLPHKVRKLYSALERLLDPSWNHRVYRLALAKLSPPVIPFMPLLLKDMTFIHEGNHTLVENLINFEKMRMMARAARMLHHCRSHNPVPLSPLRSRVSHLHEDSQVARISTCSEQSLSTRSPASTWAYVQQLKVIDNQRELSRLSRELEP
Assay: Validation qHTS for antagonist of cAMP-regulated guanine nucleotide exchange factor 3 (EPAC1); note: nearly all actives have a fitted effect of over 75% in size
Settings: EPAC1 Rap1B-BODIPY-GDP exchange, fluorescence; series mostly up to 150 µM; activity change, negative = inhibition: at the top concentration
Summary of the method: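 EPAC1 (100 nM) mixed with 250 nM RAP1B-BODIPY-GDP and 50 uM GDP; compounds in concentration series, 5 min at room temperature. Fluorescence (ex 480/em 540 nm) read every 5 min for 30 min; normalized to ATA control and DMSO.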

Activity change, negative = inhibition, inactive:
Cc1ccccc1N=C1Nc2ccc(Cl)cc2N[C@]12C[C@H]1CCCC(=O)N3CC[C@@H](C2)[C@@H]13 10.6%, COc1cc(C)c(CC/C(C)=C/C=C/C(C)=O)c(C)c1C -8.02%, COc1ccc(CNC(=O)c2cnn(-c3ncc4c(n3)-c3ccccc3CC4)c2C)cc1OC 6.94%, O=C(c1ccc(Cl)cc1)N1CCN(c2ccc([N+](=O)[O-])c3ncccc23)CC1 -7.07% [at 75.8 µM], COC(=O)[C@@H]1N2C(=O)[C@@H](NC(=O)C(C)Oc3ccccc3)[C@H]2SC1(C)C (some centres undefined) 7.24%, COCC1CCCN(Cc2ccc3c(c2)CN(C(=O)c2cccnc2OC)CCO3)C1 (centres undefined) 9.6%, COc1ccc2c(c1)CCc1cnc(-n3ncc(C(=O)NCCCc4ccncc4)c3C)nc1-2 -2.74%, CC(C)CN1CCC2(CC1)CCN(C(=O)c1cccc(F)c1)CC2 15.5%, O=S(=O)(O)CCCS(=O)(=O)O 9.94%, COC(=O)c1ccc(C(=O)NCC2Cc3cc(F)cc(-c4cncnc4)c3O2)cc1 (centres undefined) 3.99%, CCCCCCCCCCCC(=O)OC[C@@H](O)C1OC[C@H](O)[C@H]1O (some centres undefined) -21.7%, CCOC(=O)c1ccc(OCCN2C[C@H](O)[C@@H](O)[C@H](O)[C@H]2CO)cc1 6.74%, Nc1cccc2c1CN(C1CCC(=O)NC1=O)C2=O (centres undefined) 19%, CCCCCCCCCCCCCCCC(C)C1=NCCN1 (centres undefined) 1.16%, O=C(Nc1cccc(F)c1)N1CC[C@@]2(CCCN(C(=O)c3csnn3)C2)C1 17.7%, CC(=O)Oc1c(C)c(C)c2c(c1C)CCC(C)(CCCC(C)CCCC(C)CCCC(C)C)O2 (centres undefined), COc1ccc(C(=O)N2CCC3(CCN(Cc4ccc(C#N)cc4)CC3)CC2)cc1 19.9%, COCCn1c(=O)c(-c2cc(F)cc(F)c2)nc2cnc(N(C)C)nc21 11.4%, O=c1c(O)c(-c2ccccc2)oc2ccc3occc3c12 2.88%, CO[C@]1(NC(=O)CSC(F)F)C(=O)N2C(C(=O)O)=C(CSc3nnnn3CCO)CO[C@H]21 44.9%, O=C(C[n+]1cccc2cccc(O)c21)c1ccc(F)cc1 7.1%, Cc1nc2cnc(Oc3cccc(Cl)c3)nc2n(C[C@H]2CCCO2)c1=O 16.8%, CC(C)NC(=O)N1CC[C@@]2(CCCN(C(=O)Oc3ccccc3)C2)C1 -2.29%, COC(=O)[C@@H]1CCCN1C(=O)c1cc(NC(=O)c2ccccc2)cc2ncn(C3CCCC3)c12 3.96%, Cc1ncc2c(c1CNC(=O)c1ccsc1)CCN(C(=O)c1c(F)cccc1Cl)C2 8.26%, Cn1cccc1C(=O)N1CCC2(CCCN(C(c3ccccc3)c3ccccc3)C2)CC1 8.48%, CCNc1ncc2nc(-c3ccc(Cl)cc3)c(=O)n(C[C@H]3CCCO3)c2n1 17.9%, Cc1cnc(C)c(-c2cc(F)cc3c2OC(CNC(=O)Cc2c(C)noc2C)C3)n1 (centres undefined) 0.496%, COc1ccc(-c2coc3c(OC)c(OC)cc(O)c3c2=O)cc1 -16.4%, C=C1[C@@H](O)CN(Cc2ccc(OC)cc2)S1(=O)=O 13.5%, COCCn1c(=O)c(-c2cc(F)cc(F)c2)nc2cnc(Oc3ccccc3)nc21 -0.311%, CC(C)COC(=O)c1ccc(N)cc1 -0.856%, COc1ccc(C(=O)c2ccc(O)cc2)c(O)c1O -0.0129%, COc1cc(=O)n2c(c1C(=O)N(C)Cc1cscn1)CCN(Cc1c(C)[nH]c3ccccc13)CC2 18.3%, O=C1N(c2ccccc2)c2ccccc2C1(Cc1ccncc1)Cc1ccncc1, Cc1nc2cnc(N(C)C)nc2n(CCc2ccccc2)c1=O -7.54%, Cn1cc(/C=C/c2ccc3ccccc3n2)c2ccccc21 13.3%, CCCn1c(=O)c2[nH]c(-c3ccc(S(=O)(=O)O)cc3)nc2n(CCC)c1=O -4.74% [at 75.8 µM], CC[C@H](NC(C)C)[C@H](O)c1ccc(O)c2[nH]c(=O)ccc12, CCCCCCCC(=O)O -0.714%, Cc1ccccc1N1C(=O)c2cc(S(N)(=O)=O)c(Cl)cc2NC1C (centres undefined), O=C(O)CNC(=O)c1ccccc1I 16.6%, O=C(c1cccc(F)c1)N1CCC2(CCCN(C(c3ccccc3)c3ccccc3)C2)CC1 0.606%, O=C1C(=O)c2ncccc2-c2cccnc21 2.27%, COc1ccc(-n2c(=O)c(C)nc3cnc(N(C)C)nc32)cc1 7.69%, OCCOCCN1CCN(C(c2ccccc2)c2ccc(Cl)cc2)CC1 (centres undefined) 42.3%, C[C@]12CCC(=O)C[C@@H]1CC[C@@H]1[C@@H]2CC[C@]2(C)C=CC[C@@H]12 -15.4%, O=C(O)c1ccc2c3c1cccc3c(=O)n1c3ccccc3nc21 3.75%, COC(=O)C[C@H]1c2cc(C(F)(F)F)ccc2S(=O)(=O)N1C(C)(C)C -9.33%, COc1cccc(CNC(=O)c2c(OC)cc(=O)n3c2CCN(C(=O)C2CC24CCCC4)CC3)c1 (centres undefined) 0.649%, COc1cc(CN2CCOc3ccc(C(O)c4cccnc4)cc3C2)cc(OC)c1 (centres undefined) 11.6%, COc1ccc2c(c1)OCC(Cc1ccc(OC)c(OC(C)=O)c1)C2=O (centres undefined) -18.9%, CCN(CC)C1CCN(C(=O)c2cnn(-c3ncc4c(n3)-c3ccccc3CCC4)c2COC)C1 (centres undefined) 13.8%, COC(c1ccc2c(c1)CN(C(=O)Cn1nc(C)c3ccccc3c1=O)CCO2)C1CCCCC1 (centres undefined) 1.51%, COc1ccc(Oc2ncc3nc(-c4cn(C)c5ccccc45)c(=O)n(C4CC4)c3n2)cc1 10.9%, OC[C@H]1O[C@@](CO)(O[C@H]2O[C@H](CO)[C@@H](O)[C@H](O)[C@H]2O)[C@@H](O)[C@@H]1O 17.2%, CC(=O)NCCNc1ncnc2ccc(-c3ccoc3)cc12 5.73%, CC1(C)OC(=O)C=C[C@@]2(C)C1C[C@@H](O)[C@]1(C)C2CC[C@@]2(C)C(c3ccoc3)OC(=O)[C@H]3O[C@]321 (some centres undefined) 22.3%, CCCCC(=O)O[C@]1(C(=O)CO)CC[C@H]2[C@@H]3CCC4=CC(=O)CC[C@]4(C)[C@H]3[C@@H](O)C[C@@]21C 8.06%, Cc1noc(NS(=O)(=O)c2ccc(N)cc2)c1C, Cn1c(=O)c(-c2ccc(F)cc2)nc2cncnc21 16.8%, CCc1cccc2c3c([nH]c12)C(CC)(CC(=O)O)OCC3 (centres undefined), CC[N+](CC)(CC)CCC(O)(c1ccccc1)C1CCCCC1 (centres undefined) -3.77% [at 75.8 µM], CC(C)C(NS(C)(=O)=O)c1nnc2n1CCN(Cc1ccc3cccnc3c1)CC2 (centres undefined) 8.21%, C[C@]12CC[C@@H]3c4ccc(O)cc4CC[C@H]3[C@@H]1C[C@@H](O)[C@@H]2O 2.28%, CC[C@@H](C)[C@H](NS(=O)(=O)c1cccc2ccccc12)C(=O)N[C@H](C=O)Cc1c[nH]c2ccccc12 -14.2%, CN(C)CCCO[C@@H]1[C@H]2OC(C)(C)O[C@H]2O[C@@H]1[C@H](O)CO -0.672% [at 75.8 µM], COc1cc(=O)n2c(c1C(=O)NCc1ccco1)CCN(C(=O)c1c(F)ccc(F)c1F)CC2 1.06%, COc1ccccc1CNc1ncnc2ccc(-c3cccnc3)cc12 12.2%, CCCCN1CCCC1C(=O)Nc1c(C)cc(C)cc1C (centres undefined) 2.98%, COc1ccccc1-c1ccc(C(=O)N2CCC(N3CCc4ccccc4C3)CC2)c(N(C)CC2COCCO2)n1 (centres undefined) 14%, CC(C)(C)NC[C@H](O)COc1cccc2[nH]c(=O)[nH]c12 11.5%, CCOc1ccc(C(=O)c2ccc(O)c(O)c2O)cc1 19.1%, COc1ccc(CN2CCCC(n3cc(C(=O)N4CCCCC4)nn3)C2)c(OC)c1OC (centres undefined) -1.24%, O=C(O)/C=C1\CCCc2ccccc2[C@H]1O -14.1%, Cc1nc2cnc(N3CCOCC3)nc2n(CCC#N)c1=O 8.13%, O=C(O)CCC/C=C\C[C@@H]1C(/C=C/[C@@H](O)COc2cccc(C(F)(F)F)c2)[C@@H](O)C[C@@H]1O (some centres undefined) 41.2% [at 15.3 µM], CCCCC[C@H](O)/C=C/C=C\C=C\C=C\[C@@H](O)[C@@H](O)CCCC(=O)O 18.1% [at 1.57 µM], COc1ccc(CN2CCCC(n3cc(C(=O)N4CCCCC4)nn3)C2)cc1OC (centres undefined) 20%, CN(C)CC/C=C1\c2ccccc2COc2ccccc21, Cc1cc(-c2ccnc(-n3ncc(C(=O)NCC4COCCO4)c3C)n2)c(C)s1 (centres undefined) 24.4%, Cc1cnccn1 16.2%, CC(C)NC(=O)N1CCCC2(CCN(C(=O)c3ccncc3)CC2)C1 22.4%, Cn1cc(S(C)=O)c(=O)c2ccc(F)cc21 (centres undefined) 26.7%, CC1=C(C(=O)OCc2ccccc2)N2C(=O)[C@@H](NC(=O)OCc3ccccc3)[C@H]2SC1 -3.97%, COc1ccccc1/C=c1/[nH]c(=O)/c(=C\c2ccccc2OC)[nH]c1=O 17.3%, COCC(=O)Nc1cc(C(=O)NC2C3CC4CC2CC(O)(C4)C3)cc2nc(-c3ccccc3)n(C)c12 (centres undefined) 6.21%, CN1CCN(c2ncc3nc(-c4cn(C)c5ccccc45)c(=O)n(C)c3n2)CC1 13.3%, Nc1nc2c(nc(Cl)n2C2OC(CO)C(O)C2O)c(=O)[nH]1 (centres undefined) 6.29%, COCC(=O)Nc1cc(C(=O)N2CCN(C)C(c3ccccc3)C2)c2c(c1)nc(-c1ccncc1)n2C (centres undefined) 21.3%, Cc1nc2cnc(Oc3cccc(Cl)c3)nc2n(CCC#N)c1=O 0.704%, CCOC(=O)[C@H](CS)NCCN[C@@H](CS)C(=O)OCC 13.3%, COC(=O)c1cn([C@@H]2C[C@@H](C(=O)Nc3cccc(SC)c3)N(C3CCCC3)C2)nn1 15.6%, COc1ncc2nc(-c3ccc(Cl)cc3)c(=O)n(CCc3ccccc3)c2n1 12.2%, COc1cc(=O)n2c(c1C(=O)NC(C)c1ccco1)CCN(Cc1ccccc1C(F)(F)F)CC2 (centres undefined) -4.41%, CCn1c(-c2ccccc2F)nc2cc(NC(C)=O)cc(C(=O)N(C)Cc3ccccn3)c21 21.9%, COC(=O)N1CCC2(CCN(Cc3ccccc3)CC2)CC1 17%, COCCn1c(=O)c(CCc2ccccc2)nc2cnc(N3CCOCC3)nc21 -4.86%, CCCCNC(=O)[C@@H]1CC=C[C@@H]2CCN(C3CCCCC3)C(=O)[C@@H]21 4.35%

— PubChem BioAssay AID1645882 (National Center for Advancing Translational Sciences (NCATS), 2021)
